Measurements from paper PMC4336329 (PLoS ONE, 2015).
Hit rate of the full screen: of about 310,000 compounds, about 2,200 (0.71%) showed an effect of 50% or more. The effect is printed as a negative number. The list shows a part of the results.

Each compound was assayed against human ether-à-go-go-related gene (hERG) potassium channel (human, UniProt Q12809) (assay: primary screen, population patch clamp on CHO cells stably expressing hERG).
human ether-à-go-go-related gene (hERG) potassium channel, sequence (Q12809 whole entry, looked up): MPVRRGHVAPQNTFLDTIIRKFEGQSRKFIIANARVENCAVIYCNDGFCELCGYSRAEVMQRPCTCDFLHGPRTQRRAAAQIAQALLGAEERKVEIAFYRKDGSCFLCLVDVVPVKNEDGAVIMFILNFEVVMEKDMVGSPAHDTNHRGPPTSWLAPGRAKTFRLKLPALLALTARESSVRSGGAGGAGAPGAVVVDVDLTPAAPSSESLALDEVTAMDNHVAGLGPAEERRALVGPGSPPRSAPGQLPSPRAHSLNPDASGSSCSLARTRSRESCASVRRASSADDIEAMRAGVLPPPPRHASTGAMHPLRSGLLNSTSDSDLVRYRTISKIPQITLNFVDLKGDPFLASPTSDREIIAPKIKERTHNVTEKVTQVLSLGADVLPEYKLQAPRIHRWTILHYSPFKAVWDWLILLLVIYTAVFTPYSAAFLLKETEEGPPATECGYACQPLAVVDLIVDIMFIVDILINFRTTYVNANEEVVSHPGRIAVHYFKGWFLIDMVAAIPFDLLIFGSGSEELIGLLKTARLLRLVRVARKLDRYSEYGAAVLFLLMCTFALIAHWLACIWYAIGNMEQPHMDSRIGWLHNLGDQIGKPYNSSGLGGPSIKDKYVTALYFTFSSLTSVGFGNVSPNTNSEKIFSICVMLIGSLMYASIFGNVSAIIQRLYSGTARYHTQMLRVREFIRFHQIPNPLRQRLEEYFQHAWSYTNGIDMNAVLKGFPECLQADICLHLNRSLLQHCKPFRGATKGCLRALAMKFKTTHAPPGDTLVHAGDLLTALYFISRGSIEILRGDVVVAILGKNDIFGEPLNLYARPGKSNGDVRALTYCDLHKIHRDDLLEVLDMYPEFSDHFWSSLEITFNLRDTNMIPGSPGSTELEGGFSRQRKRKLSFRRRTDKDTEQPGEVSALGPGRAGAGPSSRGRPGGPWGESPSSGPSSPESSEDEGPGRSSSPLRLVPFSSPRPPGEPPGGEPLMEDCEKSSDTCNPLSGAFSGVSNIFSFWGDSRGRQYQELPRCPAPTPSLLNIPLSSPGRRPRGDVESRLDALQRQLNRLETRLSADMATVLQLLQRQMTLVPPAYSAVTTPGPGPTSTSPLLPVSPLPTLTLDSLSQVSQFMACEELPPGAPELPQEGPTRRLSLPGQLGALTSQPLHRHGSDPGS
For `CC(=O)N1CCN(c2ccc(N)cc2)CC1`, the “hERG current change (%, negative = inhibition) at 1uM” value was 7.17%.
With `CC(=O)NCCCc1nc2ccccc2n1Cc1ccc(C)cc1` the “hERG current change (%, negative = inhibition) at 1uM” value was -3.48%.
In the case of `CCOc1ccc(S(=O)(=O)Nc2nc3ccccc3nc2N2CCN(C)CC2)cc1`, the “hERG current change (%, negative = inhibition) at 1uM” value is reported as 2.45%.
In the case of `C=CCNC(=S)NCC=C`, the “hERG current change (%, negative = inhibition) at 1uM” value is reported as 7.5%.
For `c1ccc(N/N=C(\Cc2nc3ccccc3[nH]2)c2ccccc2)cc1`, the “hERG current change (%, negative = inhibition) at 1uM” value was 9.61%.
With `CC(=NCC1CCCO1)c1c(O)n(C)c(=O)n(C)c1=O` (stereo not drawn) the “hERG current change (%, negative = inhibition) at 1uM” value was 11.8%.
With `Cc1csc(NC(=O)C2CCCCC2)n1` the “hERG current change (%, negative = inhibition) at 1uM” value was 13%.
`COc1ccc(Cl)cc1-c1nc(-c2ccc(Br)o2)no1` was tested, and the “hERG current change (%, negative = inhibition) at 1uM” value was 11%.
`CCOc1cc(C)c(-c2onc(C(F)(F)F)c2-c2csc(C)n2)c(O)c1` was tested, and the “hERG current change (%, negative = inhibition) at 1uM” value was 15.3%.
For `O=C(CN1CCN(Cc2ccccc2F)C1=O)NCc1cccnc1`, the “hERG current change (%, negative = inhibition) at 1uM” value was 5.4%.
In the case of `CC(=O)Nc1ccc(C(=O)Nc2cc(C(F)(F)F)ccc2-n2cnc3ccccc32)cc1`, the “hERG current change (%, negative = inhibition) at 1uM” value is reported as 7.11%.
`Cc1cccc(C(C(=O)NC2CCCCC2)N(C(=O)c2csnn2)C2CC2)c1` (stereo not drawn) was tested, and the “hERG current change (%, negative = inhibition) at 1uM” value was 13.5%.
`O=C1CC(CCC(=O)NC2CC2)c2ccccc2N1` (stereo not drawn) was tested, and the “hERG current change (%, negative = inhibition) at 1uM” value was -6.9%.
`COc1cc(OC)cc(C(=O)N2CCN(C(=O)c3cccc(F)c3)CC2)c1` was tested, and the “hERG current change (%, negative = inhibition) at 1uM” value was 8.54%.
With `Cn1c(NCc2ccccc2O)nc2ccccc21` the “hERG current change (%, negative = inhibition) at 1uM” value was 7.18%.
In the case of `COc1ccc(CN(C)C(=O)c2cc(-c3ccc(C)cc3C)nc3ccccc23)c(OC)c1OC`, the “hERG current change (%, negative = inhibition) at 1uM” value is reported as 14.7%.
For `O=C(N=C1SC2CS(=O)(=O)CC2N1Cc1ccc(F)cc1)C1CC1` (stereo not drawn), the “hERG current change (%, negative = inhibition) at 1uM” value was 5.2%.
With `COCCNC(=O)CN(C)S(=O)(=O)c1ccc2c(c1)OCCO2` the “hERG current change (%, negative = inhibition) at 1uM” value was 11.9%.
In the case of `CCc1nnc(NC(=O)C2CCN(c3cnccn3)CC2)s1`, the “hERG current change (%, negative = inhibition) at 1uM” value is reported as 5.04%.
For `CC(C)OP(=O)(OC(C)C)C(O)c1ccc(N(C)C)cc1` (stereo not drawn), the “hERG current change (%, negative = inhibition) at 1uM” value was 14.7%.
With `COCC(=O)Nc1nc(-c2ccccc2)c(C)s1` the “hERG current change (%, negative = inhibition) at 1uM” value was -1.8%.
`O=C(c1cn(Cc2ccccc2)nc1-c1ccccc1)N1CCN(c2ccccn2)CC1` was tested, and the “hERG current change (%, negative = inhibition) at 1uM” value was 2.74%.
`CC(C)OS(C)(=O)=O` was tested, and the “hERG current change (%, negative = inhibition) at 1uM” value was 10.2%.
With `CCCn1nnnc1SCC(=O)NC1CCCC1` the “hERG current change (%, negative = inhibition) at 1uM” value was 13.6%.
In the case of `CCOCCOC(=O)c1cccc(NC(=O)OCC)c1`, the “hERG current change (%, negative = inhibition) at 1uM” value is reported as 9.02%.
With `O=P(c1ccccc1)(c1ccccc1)c1cc(Br)cc(Br)c1OCCO` the “hERG current change (%, negative = inhibition) at 1uM” value was 2.13%.
In the case of `COc1ccccc1CNC1CCN(Cc2ccccc2)CC1`, the “hERG current change (%, negative = inhibition) at 1uM” value is reported as 14.5%.
`O=S(=O)(/N=C(/Nc1ccccc1)C(F)(F)F)c1ccccc1` was tested, and the “hERG current change (%, negative = inhibition) at 1uM” value was 5.12%.
`CCCCc1cc(=O)oc2cc(OC(C)C(=O)NCCN3CCOCC3)c(Cl)cc12` (stereo not drawn) was tested, and the “hERG current change (%, negative = inhibition) at 1uM” value was -8.35%.
For `CC1CCCCN1C(=O)CNCC1CCCO1.O=C(O)C(=O)O` (stereo not drawn), the “hERG current change (%, negative = inhibition) at 1uM” value was 16.2%.
In the case of `COc1ccc(S(=O)(=O)NC2CC(C)(C)NC(C)(C)C2)c2ccccc12`, the “hERG current change (%, negative = inhibition) at 1uM” value is reported as 7.04%.
For `Cc1ccc(-c2nnc(N3CCN(C(=O)CSc4ncn[nH]4)CC3)c3ccccc23)cc1`, the “hERG current change (%, negative = inhibition) at 1uM” value was -3.13%.
With `CCc1ccc(Nc2cc(=O)n(C3CCCCC3)c(=O)[nH]2)cc1` the “hERG current change (%, negative = inhibition) at 1uM” value was 19.2%.
For `CC(NS(=O)(=O)c1ccccc1)C(=O)Nc1ccc2c(c1)OCCO2` (stereo not drawn), the “hERG current change (%, negative = inhibition) at 1uM” value was 11.6%.
In the case of `Cc1ccccc1NC(=O)/C(=C/c1cccs1)NC(=O)c1ccco1`, the “hERG current change (%, negative = inhibition) at 1uM” value is reported as 9.33%.
With `CCOC(=O)c1[nH]c2ccc(OC)cc2c1NC(=O)c1nonc1C` the “hERG current change (%, negative = inhibition) at 1uM” value was 7.85%.
In the case of `O=C(NC(=S)Nc1cccc(F)c1)c1cccc([N+](=O)[O-])c1`, the “hERG current change (%, negative = inhibition) at 1uM” value is reported as 16%.
`CSc1nnc(Cn2c(=O)sc3ccccc32)n1C` was tested, and the “hERG current change (%, negative = inhibition) at 1uM” value was 12.2%.
With `Cc1ccc(-n2nc3c(c2NC(=O)C2CC2)CS(=O)(=O)C3)cc1` the “hERG current change (%, negative = inhibition) at 1uM” value was -0.97%.
`OCC1(Cc2ccccc2)CCN(C2CCN(c3ccccc3F)CC2)CC1` was tested, and the “hERG current change (%, negative = inhibition) at 1uM” value was -38.5%.
For `Cc1ccccc1-c1cnn(-c2cccc([N+](=O)[O-])c2)c1N`, the “hERG current change (%, negative = inhibition) at 1uM” value was -4.48%.
With `Cc1nc(C)c(C(=O)N(c2ccc(F)cc2)C(C(=O)NCC2CCCO2)c2ccccc2)s1` (stereo not drawn) the “hERG current change (%, negative = inhibition) at 1uM” value was 6.77%.
`Cc1nc(N)c(C#N)c(-c2ccccc2)c1C` was tested, and the “hERG current change (%, negative = inhibition) at 1uM” value was 1.76%.
With `CC(O)c1nc2c(c(=O)n(C)c(=O)n2C)n1C` (stereo not drawn) the “hERG current change (%, negative = inhibition) at 1uM” value was 8.38%.
For `O=C(NC1CCN(C(=S)NCc2ccco2)CC1)C12CC3CC(CC(C3)C1)C2`, the “hERG current change (%, negative = inhibition) at 1uM” value was 9.76%.
In the case of `CCN(CC)c1ccc(NC2CC(=O)N(CCc3ccc(OC)cc3)C2=O)cc1` (stereo not drawn), the “hERG current change (%, negative = inhibition) at 1uM” value is reported as 6.82%.
In the case of `Cn1cccc1CC(=O)NNC(=O)Nc1ccc(Cl)cc1`, the “hERG current change (%, negative = inhibition) at 1uM” value is reported as 5.13%.
With `COC(=O)c1cc(S(=O)(=O)N2CCN(c3cccc(OC)c3)CC2)cn1C` the “hERG current change (%, negative = inhibition) at 1uM” value was 8.34%.
With `O=C1N(Cc2cccnc2)C[C@@H]2C[C@@H](c3ccc(-c4ccccc4)cc3)N3CCC[C@@]123` the “hERG current change (%, negative = inhibition) at 1uM” value was -39%.
`c1ccc(-c2cc3c(N4CCN(c5ccccc5)CC4)ncnc3s2)cc1` was tested, and the “hERG current change (%, negative = inhibition) at 1uM” value was 7.06%.
In the case of `CCOC(=O)C1CCN(C(=O)CCNS(=O)(=O)c2ccc(C)cc2)CC1`, the “hERG current change (%, negative = inhibition) at 1uM” value is reported as 6.98%.
With `CN(Cc1ccccc1)c1ncnc(N)c1[N+](=O)[O-]` the “hERG current change (%, negative = inhibition) at 1uM” value was 8.16%.
In the case of `C=CCn1c(-c2ccc(Cl)cc2)cnc1SC(C)C(N)=O` (stereo not drawn), the “hERG current change (%, negative = inhibition) at 1uM” value is reported as 7.51%.
For `O=C(CSc1nc(O)c(C2CCCCC2)c(=O)[nH]1)Nc1ccc(Cl)cc1`, the “hERG current change (%, negative = inhibition) at 1uM” value was 10.1%.
In the case of `COC(=O)c1ccccc1C(=O)N1CCCC(CCC(=O)NCc2ccc(F)c(F)c2)C1` (stereo not drawn), the “hERG current change (%, negative = inhibition) at 1uM” value is reported as 1.77%.
In the case of `CC(CC(=O)NC(C)c1ccc2c(c1)OCCO2)c1ccccc1` (stereo not drawn), the “hERG current change (%, negative = inhibition) at 1uM” value is reported as 11.3%.
For `CC1CCCCN1C(=O)Cn1cnc2c1c(=O)n(C)c(=O)n2C` (stereo not drawn), the “hERG current change (%, negative = inhibition) at 1uM” value was 14.6%.
`CC(C)Cc1nn2c(=O)cc(O)nc2s1` was tested, and the “hERG current change (%, negative = inhibition) at 1uM” value was 10.2%.
With `Fc1ccc(Nc2ccc3ccccc3n2)c(F)c1` the “hERG current change (%, negative = inhibition) at 1uM” value was 10.8%.
In the case of `Cc1cc(Cl)c2oc(C(=O)NCCN3CCCCC3CO)c(C)c2c1` (stereo not drawn), the “hERG current change (%, negative = inhibition) at 1uM” value is reported as -7.44%.
